Measurements from PubChem BioAssay AID1476 (National Center for Advancing Translational Sciences (NCATS), 2009).
The campaign covered roughly 200,000 compounds. About 4,500 (2.2%) were called active. Inconclusive means that the source gave no clear call. Such entries were picked first, then a sample of the others. The call rests on the fitted dose curve; in most records, active means well fitted inhibition curve with a large enough effect; inconclusive means small, poorly fitted or top-dose-only effect, or effect the other way; inactive means flat fitted curve, though single readings scatter. Potencies beside an inconclusive call are fits to weak or partial responses and may not hold up.

target: Cruzipain (Trypanosoma cruzi) (UniProt P25779); assay: qHTS Assay for Promiscuous and Specific Inhibitors of Cruzain (without detergent); conditions: purified cruzain, Z-FR-AMC fluorescence, no detergent; further: nearly all actives have a fitted effect of over 40% in size;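 on max response, negative = inhibition: plate controls were enzyme without inhibitor for no effect and buffer without enzyme for full effect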
In short: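 Purified cruzain at 1.5 nM, pre-incubated 15 min with compound at room temperature in 100 mM sodium acetate pH 5.5, 5 mM DTT, 0.00005% Triton X-100. Reaction started with 2 uM Z-FR-AMC; AMC fluorescence increase over 60 s gives rate.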
Potency means the concentration at half of the fitted maximal effect; tags describe the fitted curve by direction and shape.

Sequence of UniProt P25779 (P25779 whole entry, looked up): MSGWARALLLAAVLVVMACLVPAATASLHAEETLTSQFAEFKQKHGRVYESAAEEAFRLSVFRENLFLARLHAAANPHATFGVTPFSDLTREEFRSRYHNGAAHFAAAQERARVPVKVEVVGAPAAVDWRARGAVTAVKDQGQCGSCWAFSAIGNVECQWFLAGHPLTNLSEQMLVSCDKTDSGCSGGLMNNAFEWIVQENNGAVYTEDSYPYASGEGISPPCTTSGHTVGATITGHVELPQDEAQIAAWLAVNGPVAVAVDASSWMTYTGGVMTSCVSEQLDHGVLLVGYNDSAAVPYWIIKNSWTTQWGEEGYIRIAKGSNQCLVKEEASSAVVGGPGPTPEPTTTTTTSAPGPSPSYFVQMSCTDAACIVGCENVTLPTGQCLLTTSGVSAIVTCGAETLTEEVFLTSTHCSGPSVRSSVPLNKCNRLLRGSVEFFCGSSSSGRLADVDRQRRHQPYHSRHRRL

Structure (SMILES)	max response, negative = inhibition	Potency
CCOc1ccccc1NC(=O)Cn1c(=O)n(Cc2ccc(C(=O)NCCCOC)cc2)c(=O)c2ccccc21	inactive: -3.88%	
COc1cc(OC)c(NC(=O)c2oc3ccc4c(c3c2C)C(=O)CC(C)(C)O4)cc1Cl	inactive: -0.489%	
O=C(CSc1ncn(-c2ccccc2)n1)Nc1nc(-c2ccccc2)cs1		inconclusive: 39.8 µM [inhibitor, single point]
O=S(=O)(c1ccccc1)N(CC(O)Cn1c2ccccc2c2ccccc21)c1ccccc1 (configuration not stated)		inconclusive: 39.8 µM [inhibitor, single point]
COc1ccc(NC(=O)N2CCc3c(sc4c3CCCC4)C2c2ccc(F)cc2)cc1 (configuration not stated)		inconclusive: 39.8 µM [inhibitor, single point]
Cn1cc(C(=O)NCc2ccc(F)cc2)c(=O)c2cc(S(=O)(=O)N3CCCCC3)ccc21		inconclusive: 39.8 µM [activator, single point]
CCOc1ccc(NC(=O)COc2ccc(C(=O)NCCc3ccccc3)cc2)cc1		inconclusive: 31.6 µM [inhibitor, single point]
CCCCCNCCCCC	inactive: -1.85%	
Cc1cc(C)n(-c2nc(SCC(=O)NCC3CCCO3)c3c4c(sc3n2)CCCC4)n1 (configuration not stated)		inconclusive: 31.6 µM [activator, single point]
CCOC(=O)c1ccc(N2C(=O)c3n[nH]c(C)c3C2c2ccc(OC)c(OC)c2)cc1 (configuration not stated)		inconclusive: 31.6 µM [activator, single point]
Cc1ccc(NC(=O)Cn2c(=O)n(-c3ccc(CC(=O)NCC4CCCO4)cc3)c(=O)c3ccccc32)cc1 (configuration not stated)	inactive: 20%	
CCOc1ccc(-n2c(=O)c3c4c(sc3n(Cc3cccc(Cl)c3)c2=O)CCCC4)cc1	inactive: -6.95%	
Cc1ccc(Cl)cc1N1CCN(C(=O)CN(C2CCCCC2)S(C)(=O)=O)CC1		inconclusive: 39.8 µM [activator, single point]
COc1ccc(C2=CC(c3ccc(C)cc3)n3nnnc3N2)cc1 (configuration not stated)		inconclusive: 39.8 µM [activator, single point]
Cc1cccc(C)c1NC(=O)CCCn1c(=O)c2cccn2c2ccccc21		inconclusive: 39.8 µM [activator, single point]
Cc1ccc(NC(=O)Cn2cc(S(=O)(=O)c3ccc(C)cc3)c(=O)c3cc(F)ccc32)cc1		inconclusive: 39.8 µM [inhibitor, single point]
COc1ccc(Cn2c3nc4ccccc4nc3c3c(=O)n(Cc4ccco4)cnc32)cc1		inconclusive: 39.8 µM [activator, single point]
CC(CCC(=O)O)C1CCC2C3CC(O)[C@@H]4CC(O)CC[C@]4(C)C3CC[C@@]12C (some centres not stated)		inconclusive: 25.1 µM [activator, single point]
CCCC(=O)NCCc1nc2ccccc2n1CCC		inconclusive: 15.8 µM [inhibitor, partial curve]
Cn1c(SCC(=O)Nc2cccc(Br)c2)nnc1-c1cc2ccccc2o1		active: 12.6 µM
C=CCN(CC=C)S(=O)(=O)c1ccc(C(=O)Nc2nc3c(s2)CCc2ccccc2-3)cc1		active: 10 µM

Structure (SMILES)	max response, negative = inhibition	Potency
O=c1c2c3c(sc2ncn1Cc1ccc(F)cc1)CCC3		active: 7.94 µM
O=C(Nc1sc2c(c1C(=O)NCC1CCCO1)CCC2)c1cc(=O)c2cc(Cl)ccc2o1 (configuration not stated)	inactive: -0.874%	
COc1ccc(/C=N/NC(=O)c2ccccc2O)cc1CSc1ccccn1		inconclusive: 31.6 µM [inhibitor, single point]
O=C(Nc1ncc(Cc2ccccc2Cl)s1)c1ccc(-c2cccc([N+](=O)[O-])c2)o1		active: 6.31 µM
COc1ccc(/C=C(\C#N)c2nc3ccc(C)cc3[nH]2)cc1Oc1ccc(C(F)(F)F)cc1[N+](=O)[O-]		active: 5.01 µM
O=C(c1ccc2c(c1)N(Cc1c(F)cccc1Cl)C(=O)c1ccccc1S2)N1CCCC1	inactive: 7.28%	
CCc1ccc(NC(=O)c2ccc(Cn3nc(N4CCN(c5ccccc5)CC4)ccc3=O)o2)cc1		inconclusive: 31.6 µM [activator, single point]
COC(=O)C(Cc1ccccc1)NC(=O)C(N)CC(=O)O (configuration not stated)	inactive: -7.22%	
COC(=O)c1ccc(COC(=O)CNC(=O)c2ccc(-c3ccccc3)cc2)cc1		inconclusive: 39.8 µM [inhibitor, single point]
COCCCn1c(SCC(=O)Nc2ccc(F)cc2)nc2c(sc3ccccc32)c1=O	inactive: -2.6%	
Cc1cccc(NC(=O)C2CCCN(S(=O)(=O)c3ccc4c(c3)CCCC(=O)N4)C2)c1 (configuration not stated)	inactive: -5.57%	
COc1ccc(N=C2SC(CC(=O)Nc3cccc(Cl)c3)C(=O)N2Cc2ccco2)cc1 (configuration not stated)		inconclusive: 25.1 µM [inhibitor, single point]
Cc1ccc(-c2nc(NC(=O)c3nn(C)cc3[N+](=O)[O-])sc2C)cc1		inconclusive: 39.8 µM [activator, single point]
COc1ccc(CNC(=O)c2cc3cccc4c3n2CC(C)S4)cc1OC (configuration not stated)		inconclusive: 39.8 µM [activator, single point]
Cc1ccc(CNS(=O)(=O)c2ccc3[nH]c4c(c3c2)CCCCC4)cc1	inactive: -11.5%	
COc1ccc(-c2nc3ccccc3c(=O)n2CCOc2ccccc2C)cc1		inconclusive: 39.8 µM [inhibitor, single point]
O=C(COc1ccccc1)Nc1nnc(C23CC4CC(CC(C4)C2)C3)s1		inconclusive: 39.8 µM [inhibitor, single point]
O=C(NC(NC(=O)c1ccccc1)c1cccc([N+](=O)[O-])c1)c1ccccc1		inconclusive: 39.8 µM [inhibitor, single point]
CC(/C=C/c1ccccc1)=N\Nc1nc(-c2ccccc2)cs1		active: 25.1 µM
CCOCCCNC(=O)C(=O)Nc1c2c(nn1-c1ccccc1)CSC2		inconclusive: 39.8 µM [activator, single point]
COc1ccc(NC(=O)c2cc(-c3cccnc3)nc3ccc(C)cc23)cc1OC		inconclusive: 25.1 µM [activator, partial curve]
